# Data taken from article PMC4336329 (PLoS ONE, 2015).
# About 14,000 (4.5%) of roughly 310,000 compounds showed an effect of 50% or more. Effects have a minus sign here. The list shows a part of the results.
# Target: human ether-à-go-go-related gene (hERG) potassium channel (human, UniProt Q12809)
# Assay: primary screen, population patch clamp on CHO cells stably expressing hERG
# 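Note: peak tail current of the secondary pulse compared with the same well before compound.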
# Chain of human ether-à-go-go-related gene (hERG) potassium channel (Q12809 whole entry, looked up): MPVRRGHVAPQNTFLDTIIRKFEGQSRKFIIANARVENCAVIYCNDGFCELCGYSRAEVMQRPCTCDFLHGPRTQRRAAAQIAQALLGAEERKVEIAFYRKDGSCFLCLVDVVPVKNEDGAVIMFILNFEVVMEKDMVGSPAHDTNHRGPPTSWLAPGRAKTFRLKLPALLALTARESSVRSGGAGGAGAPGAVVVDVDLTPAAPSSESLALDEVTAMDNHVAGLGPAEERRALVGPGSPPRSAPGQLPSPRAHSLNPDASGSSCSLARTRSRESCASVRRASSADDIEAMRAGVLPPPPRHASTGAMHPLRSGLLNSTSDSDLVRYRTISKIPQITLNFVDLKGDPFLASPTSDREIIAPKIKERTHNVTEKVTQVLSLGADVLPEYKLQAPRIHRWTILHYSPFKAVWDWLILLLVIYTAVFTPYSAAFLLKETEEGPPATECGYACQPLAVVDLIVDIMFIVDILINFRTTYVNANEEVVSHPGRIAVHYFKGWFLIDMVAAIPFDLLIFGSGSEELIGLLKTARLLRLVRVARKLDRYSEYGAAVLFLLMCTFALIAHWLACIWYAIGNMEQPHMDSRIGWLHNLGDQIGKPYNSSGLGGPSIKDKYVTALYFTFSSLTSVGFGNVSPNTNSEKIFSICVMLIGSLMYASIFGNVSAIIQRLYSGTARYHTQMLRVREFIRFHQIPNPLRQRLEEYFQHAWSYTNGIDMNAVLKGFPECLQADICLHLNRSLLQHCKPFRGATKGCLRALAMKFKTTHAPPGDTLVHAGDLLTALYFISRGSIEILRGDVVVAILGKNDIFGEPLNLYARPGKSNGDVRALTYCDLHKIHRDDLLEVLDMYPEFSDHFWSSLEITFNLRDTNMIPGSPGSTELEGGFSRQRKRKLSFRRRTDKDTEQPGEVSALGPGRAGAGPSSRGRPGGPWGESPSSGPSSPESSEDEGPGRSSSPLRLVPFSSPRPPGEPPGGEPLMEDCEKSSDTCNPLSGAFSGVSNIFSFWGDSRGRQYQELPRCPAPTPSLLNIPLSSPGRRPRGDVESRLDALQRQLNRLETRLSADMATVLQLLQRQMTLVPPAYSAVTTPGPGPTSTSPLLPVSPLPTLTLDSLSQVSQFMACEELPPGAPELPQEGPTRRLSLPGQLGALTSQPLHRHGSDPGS
row,SMILES,"hERG current change (%, negative = inhibition) at 10uM [%]"
1,O=S(=O)(c1ccc2[nH]c3c(c2c1)CCCC3)N1CCCCC1,2.21
2,CCN(CC)C(=O)Cn1c(=O)n(CCC(=O)Nc2ccc(F)cc2)c(=O)c2sccc21,14.9
3,O=C(CSc1nnc(CNC(=O)c2cccs2)o1)Nc1cccc(F)c1,4.85
4,CCc1cccc2c(C#N)cn(CC(=O)N3CCOCC3)c12,10.9
5,Cc1cccc(NC(=S)Nc2ccccn2)c1,8.07
6,CN(CC(=O)Nc1ccccc1Br)CC(=O)Nc1ccccc1C(F)(F)F,-5.45
7,Cc1ccc(NC(=O)COc2coc(CN3CCc4ccccc43)cc2=O)c(C)c1,-11.9
8,O=C(NCCCN1CCCCCC1)c1cc2c(=O)oc3ccccc3c2s1,-60.5
9,CCN(CC)S(=O)(=O)c1cccc(-c2nnc(SCC(=O)NC3CCCC3)n2N)c1,19
10,CC1C(=O)N2CCCc3cc(NC(=O)C4CC4)cc1c32 (stereo not drawn),5.63
11,CSc1nc2c(c(=O)[nH]1)C(c1cccc(Br)c1)CC(=O)N2 (stereo not drawn),18.8
12,Cc1cccc(NC(=S)NCCO)c1C,19
13,Cc1cc(C)cc(N(C(C)C(=O)Nc2c(C)n(C)n(-c3ccccc3)c2=O)S(C)(=O)=O)c1 (stereo not drawn),8.48
14,Cl.O=C(COc1ccc(Cl)cc1)NCCN1CCCC1,-40
15,O=C(NCC1CCCO1)c1cc2c(s1)CCCC2 (stereo not drawn),19.6
16,CN(C)C(=S)NCc1ccccc1,13.9
17,CC(=O)Nc1ccc(NC(=O)CSc2nnnn2C2CCCCC2)cc1,-8.79
18,O=C(NCCc1c[nH]c2ccccc12)/C(=C\c1cccs1)NC(=O)c1ccccc1,-33.4
19,NC(=O)c1nc(-c2cccs2)nc2c1[nH]c(=O)n2-c1ccc(F)cc1,12.6
20,O=C(O)C1CC=CCC1C(=O)N1CC=C(c2ccccc2)CC1 (stereo not drawn),-9.56
21,CCc1cccc(C)c1NC(=O)CCN1C(=O)NC(C)(C)C1=O,8.82
22,Cc1ccc(N2CC(C(=O)Nc3nnc(SCCN4CCOCC4)s3)CC2=O)cc1 (stereo not drawn),3.31
23,Clc1cccc(CON/C=N/c2ncnc3sccc23)c1,-19.9

row,SMILES,"hERG current change (%, negative = inhibition) at 10uM [%]"
1,COc1ccc(Cl)cc1N1C(=O)C2CCCN2C1c1ccccc1F (stereo not drawn),-0.486
2,COc1cccc(C(=O)OCC(=O)Nc2cc(C)c(C)cc2[N+](=O)[O-])c1,11.9
3,O=C(CCCN=C1NS(=O)(=O)c2ccccc21)OCc1cc([N+](=O)[O-])cc2c1OCOC2,-14.7
4,Cc1ccc(C2CC(c3ccccc3)=NN2C(=S)Nc2ccccc2)o1 (stereo not drawn),7.14
5,CCC(Sc1nncn1C)C(=O)Nc1ccccc1OC (stereo not drawn),-1.77
6,Cc1ccc(S(=O)(=O)NNC(=O)CCC(=O)Nc2ccccc2)cc1,8.95
7,Cl.Clc1ccc(CN2C3=NCCN3c3ccccc32)cc1,-69.5
8,COC(=O)c1ccccc1NC(=O)C(C)c1ccc([N+](=O)[O-])cc1 (stereo not drawn),22.2
9,Cc1ccc(C)c(S(=O)(=O)N2CCN(c3ncccn3)CC2)c1,21.5
10,Cc1ccc2[nH]c3c(NCc4ccco4)ncnc3c2c1,-14.1
11,Cc1ccc(OCCN2C(=O)CSC2=O)cc1,-0.132
12,CC(C)=CCN1CCN(Cc2cccc3nccnc23)CC1CCO (stereo not drawn),-8.42
13,CCn1nc(C(=O)OCC(=O)c2c[nH]c3ccccc23)c2ccccc2c1=O,-19.4
14,COc1ccccc1N1C(=O)S/C(=C\c2cccs2)C1=O,16.7
15,CN(C)c1ccc(/C=N/NC2=NS(=O)(=O)c3ccccc32)cc1,21.4
16,C=CCn1c(SCC(=O)Nc2cccc(S(N)(=O)=O)c2)nnc1C1CCCCC1,0.944
17,Cc1ccc(S(=O)(=O)N2CCN(C(=O)c3ccco3)CC2)cc1,1.15
18,Cc1cc(C)c(C(=O)COC(=O)CCn2c(C)csc2=O)cc1C,-18.3
19,Cc1ccc(C(=O)N/C(=C/c2ccco2)C(=O)NCC2CCCO2)cc1 (stereo not drawn),-10.3
20,Cl.c1ccc(CCn2nnnc2C(c2cccs2)N2CCN(Cc3ccc4c(c3)OCO4)CC2)cc1 (stereo not drawn),-24.1
21,CCN(CC)CCNC(=O)c1ccc(NC(=O)C2CC(=O)N(c3ccc4c(c3)OCCO4)C2)cc1 (stereo not drawn),5.35
22,CCN(Cc1ccccc1)Cc1c(F)cccc1F,-0.224
23,COc1cccc(CC(NC(C)=O)C(=O)NC2CCN(c3c4c(nc5ncnn35)CCC4)CC2)c1OC (stereo not drawn),7.94

row,SMILES,"hERG current change (%, negative = inhibition) at 10uM [%]"
1,Cc1ccn(Cc2n[nH]c(=S)n2Cc2ccccc2)n1,-0.149
2,CC(C)CN1CCN(Cc2cccc3ncccc23)CC1CCO (stereo not drawn),-2.49
3,CCc1cc(=O)oc2c(CNCc3ccc(OC)cc3OC)c(O)c(Cl)cc12.Cl,13.3
4,COc1ccc(NC(=O)c2ccc3ccccc3n2)cc1S(=O)(=O)Nc1ccccc1Cl,26.4
5,O=C1c2ccccc2C(Nc2ccc(S(=O)(=O)N3CCOCC3)cc2)N1c1cccnc1 (stereo not drawn),-15
6,COc1ccc(C)cc1NC(=O)c1cc2ccccc2o1,2.98
7,O=C(COc1ccc(Br)cc1CO)Nc1ccc(S(=O)(=O)N2CCCCC2)cc1,-22.9
8,CC(=O)Nc1ccc(NS(=O)(=O)c2cc(Cl)ccc2Cl)cc1,-14.8
9,O=C(CNS(=O)(=O)c1c(Cl)cccc1Cl)OCC(=O)c1ccc[nH]1,-1.58
10,CCOc1cc(CNc2ccc(OC)cc2)cc(Br)c1OCC(=O)NC(C)(C)C,0.824
11,Cc1cccc(C)c1NC(=O)COC(=O)C1CC(=O)N(Cc2ccccc2)C1 (stereo not drawn),-1.53
12,O=c1oc2cc(O)ccc2s1,15.4
13,CC(=O)c1ccc(OCCCC(=O)n2nnc3ccccc32)cc1,36
14,C=CCn1c(NCCO)nc2c1c(=O)n(C)c(=O)n2C,9.07
15,CC/C(Cc1ccccc1)=N/NC(=O)CCn1nnc2ccccc21,2.05
16,CCOC(=O)C1=C(C)NC2=C(C(=O)CC(c3ccc(OC)c(OC)c3)C2)C1c1ccc(C)o1 (stereo not drawn),-24.8
17,CN(CC(=O)Nc1ccc(F)c(F)c1F)C(=O)C1=COCCO1,16.1
18,O=C(CCCC(=O)N(CC(=O)NC1CCCC1)C1CCCC1)Nc1ccccn1,4.33
19,CCn1c(C)csc1=NC(=O)c1ccccc1,-6.7
20,CN(c1ccccc1)S(=O)(=O)c1cccc(NC(=O)c2cccc(C#N)c2)c1,-40.2
21,CN1CCN(C(=O)C23CCC(C)(C(=O)C2Br)C3(C)C)CC1 (stereo not drawn),1.95
22,C/C(=N\Nc1nc(N)cc(Cl)n1)c1ccc(F)cc1,-7.64
23,CCN(CC)S(=O)(=O)c1cc(NC(=O)C(=O)c2c(-c3ccccc3)cc3ccccn23)ccc1C,-6.68

row,SMILES,"hERG current change (%, negative = inhibition) at 10uM [%]"
1,CCCOc1ccc(/C(O)=C2/C(=O)C(=O)N(CCCn3ccnc3)C2c2ccc(C)o2)cc1 (stereo not drawn),9.62
2,COc1cccc(/C=N/NC(=O)CSc2nnc(C)n2-c2ccccc2)c1OC,-5.39
3,CCCS(=O)(=O)Nc1cccc(-c2ccc3nnc(C)n3n2)c1,5.7
4,CC(=O)Nn1cnc2c(c1=O)C1(CCCC1)Cc1ccccc1-2,-4.19
5,CCN(Cc1ccccc1)C(=O)c1cccc(S(=O)(=O)N2CCN(Cc3ccccc3)CC2)c1,-19.6
6,O=C(O)CSCC(=O)NCc1ccc(Cl)cc1,-0.915
7,CCOc1ccc(Cl)cc1S(=O)(=O)N1CCC(C(=O)NC2CC2)CC1,-7.55
8,CC1CCCCN1C(=S)NCc1ccccc1 (stereo not drawn),3.27
9,O=C(Cn1cnc2c(oc3ccccc32)c1=O)N1CCN(c2ccccc2)CC1,9.97
10,Cc1nc2c(cnn2-c2ccccc2)c(=O)n1/N=C/c1ccccc1,11.9
11,OCCCc1nc2ccccc2n1Cc1ccccc1,7.46
12,CCOC(=O)c1n[nH]c(=O)c2ccccc12,-9.88
13,COc1cc(-n2c(=O)c3ccccc3n(Cc3cc(=O)n4ccccc4n3)c2=O)cc(OC)c1OC,-3.63
14,Cc1ccc(C(=O)C(C)OC(=O)c2ccc(Cl)nc2)cc1 (stereo not drawn),-4.4
15,COc1cc(NC(=S)NNC(=O)C(C)(C)O)cc(OC)c1,28.6
16,CCCCOc1cccc(C(=O)Nc2ccc(NC(=O)c3ccco3)cc2)c1,8.63
17,O=C1Nc2ccc(Br)cc2/C1=C/C(=O)c1ccc2c(c1)OCO2,9.53
18,CC(C)CNC(=O)[C@H]1N2C(=O)c3ccccc3C2SC1(C)C (stereo partly drawn),8.23
19,O=C(NC1CCCCCC1)C1CCN(S(=O)(=O)c2cnc[nH]2)CC1,8.78
20,CCn1c(CNc2ccc(F)cc2)nnc1SCC(=O)Nc1ccc(OC)cc1,-10.8
21,CNC(=O)/C(C#N)=C/c1c(N2CCN(c3cccc(Cl)c3)CC2)nc2c(C)cccn2c1=O,9.43
